The source gives no read counts; variants with many changes may rest on few reads.
B1: LINE1-mini (parent)
chain: GGCAGAGCUCAACACAGCGUGGCAAAGUGGCUGUGGCUAGACUGCC

Variants of: B1
Test: self-cleavage, relative activity (ratio to wild type); higher = more cleavage; in vitro, sequencing; the parent is a self-cleaving ribozyme

Variant	self-cleavage
C8A C23A U38A	0.1
G2C G29A G33A C42G	0.03
G2U A6U G17C	0.05
C31U A39U U43G G44U	0.02
C3U C8G C23A	0.05
A4U A6C U32A C37G A41U	0
G1C A26G G29C A39G	0
A16C G29U C37A G40A	0.17
G1C C10U G17U U28C	0.02
G17A U20A A25C G29A	0.08
A11U G19U A24U	0.14
C15A G21U G35A G44C C45U	0.01
C13U A16U A39C	0.05
G5U G17A A41C	0.07
C8U A11U G19U	0.05
U20C G21A G22C A41C U43C C46A	0.05
C3U C8U C18U G36A C37U A41C	0.12
G19C C31G G44C	0.16
C23A U28C G33C	0.25
U9C C10G G44U C46A	0.02
C15A G19A A26U U34A	0.03
G17C A24U U32A G35U C37U	0.04
G21A U43A C46G	0
G1A A16C U34C C42G	0.05

Variant	self-cleavage
G1U C8G G17U	0.02
C15U G19A U43A C45U	0.05
U28A G30U U34A G35C	0.05
G2A C8G U9C	0.04
G17U G19C G44U	0.04
G2U G17A A39U	0.02
C8A A16G G22U C37G U38C C46G	0.01
A16G C31G U38A C42A	0.01
G21A G30A G33A	0.1
A26C G27A G33A U34C U43A C46G	0.02
G2U C3G A6U C13G C18U G27A C42A G44U	0.11
C18U A26C U28A	0.08
G36U C37A U38A	0
G5A A6C G30U A39C C42A	0.06
A4C C13A C18A C23A C37A	0.06
C18U U20A U32C C37A U43A	0.38
G21C A26G A39G	0.03
G33U C37A U43G G44U C45U	0.01
C13A G27C G30A C42U	0.08
C3U U9G C13A G17A G35A G40C U43A C45A	0.21
G1U G5U A26U A39U	0.03
C13G G35A A39C	0.3
A4U C23U A25C	0.08
G7U A14C A25U	0.17

Variant	self-cleavage
G7A A26G G29U G30A A41U	0.03
G1C U9A C18A G27C C31A G33A	0.04
C3A A6U U34C G40U G44A	0.08
C8A U9C A39C U43C G44C	0.01
G19U C31A C42A	0.04
A6C G17A C18G C37G	0.01
A14C G22U A24C G27U G44A	0
C10G C18G U20G G21U	0.06
C8A C10A U20G C31G	0
C3A C13G G36U A39C	0.63
G17C A26G C42U	0.04
A12G C31A C45A	0.14
G36C A39C C45U	0.02
G19C C42G G44U C45U	0
C8A A11C G35U	0.02
G17C G22C G30C G44C	0.1
C15A C18G G33U	0.04
G7U A14U U43A	0.21
A12C A14U G29C	0.04
A24U G27C U34C	0.06
U9G C10U G27A G30A	0.08
A6G C23U C45U	0.14
A4G G19C G29U U34A G35U A39C G40A	0.03
G7A C18A G27A	0.07

Variant	self-cleavage
G17C G33A C42G U43G	0.01
G19U G27C G30U	0.03
G1C G5U G29U C46A	0.05
A16C G22A G40C C45U	0
G19U C31U G40C	0.02
C15A C42U C45G C46A	0.05
C8U A26G G27U U28G C31U U34A	0.04
G2C A4U A11U G19C U34G C45G	0.01
A4G A6C G21C C31U	0.06
G19C U20G A41C	0.04
U9C A24G G35C G36A U38G	0.03
G7U A11C C13U C18U U20G A41G	0.01
A16G C23U U28A G35U	0.06
C3A A4G G17A U20A C42G	0.06
C15A G22A U28C	0.08
C8A A12C A16U G30U	0.05
G7A U28A G35U	0.36
A26U G30U C31G	0.03
C15G C23G U28A U34C	0.01
C13A C15A G44A	0.04
G19C U20G A26G	0.2
C3G C8G G29A	0.02
A4C C13G G22U C31G	0.02
C3A A4C A12U U20A C23U	0.01

Variant	self-cleavage
U32G G33C C45U	0.13
G1A C8G G17A A41C C46A	0.21
A26G G27A C31A C37U	0.03
C15A C18U G22C	0.04
A24U A25G G40U C45U	0.17
A12U U20G C42G	0.01
C3A C8A U9A A14U G17A G27U	0.48
G2U C15U U28G	0.11
A16U U34G G40C	0.03
C8U A11U A14G U28A	0.02
C8U U20A U28G	0.16
A4U C15G C31U	0.02
A12C A25C C45G	0.01
C3U C18G A39G	0.01
A12C U43G G44U	0.01
G1A C15A C18G U28A	0.1
C8U C10A C13U A26G A41U	0.01
G1U C8U A14U	0.06
G7C G35U G40A G44U	0.14
C15G C18A A41U C46U	0.03
C15A C23G A26U A41C G44C	0.03
G7C C18U G44U	0.1
G5A U9G A12U C37U A39U C46G	0.02
C3A G7U C8U A12C U28G A41C	0.03

Variant	self-cleavage
C8U C15A G30A C42A C45A	0.19
A4G A39G A41C	0.01
G7U C15G G19U G35A	0.01
G2C C3A C23G A39C	0.08
C3G C13A A24G G36A A41U C45A	0.08
A12C A25C U34A G36U C46G	0.03
G2A A6U G7A G17C U34C G35A	0.11
G7A U9C A12U G21A	0.04
G5C C8U G22C	0.04
G5C G27U G36C A41C	0.04
C3U C10A A26U	0.01
A14C C15U C31A C37U	0.03
C15G G17U U20G G36A C37U	0.02
G7A C10A G29A U34A	0.37
U9C C18U G22U G29U	0.04
C3G A12G U20G	0.07
C13G G17C G19A G21U G22U C46G	0.04
C8G C18G G27A G29U U38G C42U	0.01
G17A G27A U28C G35U C46A	0
C8U A25U C31A	1.64
U9A U20A G22C A25C G29U A41G U43C	0.03
A11G A12U G35U	0.02
G7U C23G A26U G29U	0.02
U9G C23U C37A	0.13

Variant	self-cleavage
A11C C37A A39U C45U	0.02
G2C C18U C42U	0.04
C3G G22A G30A C31G	0.08
A16G A25G C42U C46A	0.05
A6G C15A G21A G33A C42A C45U	0.02
C8A G17U U38G	0.04
C18A A24G A26U C37U U38G	0.02
G2C A12U A26C U32C	0.02
G5A A11U C15G G27U C31U U32A	0.02
C3G G35A C37A	0.33
C10A A25G G33U	0.03
C3G G17A G33U U38A	0
G2A A4U G17U G22A G30C	0.03
C23U A26G U38C G44U	0.07
U9A G22U U38G G40U	0.16
G2A A11C G33U U34C G44A	0.02
G5U A6G A14C G36C	0.12
G2U G5U A16C G27A U32G G36C	0.04
G2C G7U G44A	0.29
G2U C18A A41G	0
G5U A6G A14C G17A	0.14
A4G G29U U34G	0.03
G7C G21U G40U	0.01

From the RNAGym collection of RNA variant scans (doi:10.7554/elife.90254)
